Assay results published in PubChem BioAssay AID504832 (National Center for Advancing Translational Sciences (NCATS), 2011).
About 18,000 (5.8%) of roughly 310,000 compounds were called active. The inconclusive results got no clear call from the source; some entries with a clear call stand among them for comparison. The call rests on the fitted dose curve; in most records, active means well fitted inhibition curve with a large enough effect; inconclusive means small, poorly fitted or top-dose-only effect, or another doubt; inactive means no such curve, though single readings can be large or run the other way. Potencies of inconclusive entries are left out as doubtful fits.

Experiment: Primary qHTS for delayed death inhibitors of the malarial parasite plastid, 48 hour incubation
Settings: P. falciparum luciferase growth in erythrocytes; series mostly up to 28.7 µM
In short: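 Erythrocytes infected with P. falciparum carrying an integrated firefly luciferase reporter (2% hematocrit, 0.1% parasitemia final) were exposed to compounds in RPMI 1640 with 0.5% Albumax at 37 C, 5% CO2. Growth inhibition was scored as reduced luminescence.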
Potency means the concentration at half of the fitted maximal effect; tags describe the fitted curve by direction and shape.

SMILES | Potency
O=C(Nc1ccccc1)C1=C(N2CCOCC2)/C(=C/c2cccnc2)CC1 | inconclusive [inhibitor, partial curve, poor fit]
Cc1cc(C(=O)CSc2nnc(Cc3ccccc3)o2)c(C)n1Cc1ccc2c(c1)OCO2 | active: 9.28 µM
Cc1cc2ncn(C3CC(=O)N(Cc4ccccc4)C3=O)c2cc1C (stereo unspecified) | inconclusive [inhibitor, partial curve, poor fit]
OC(COc1ccc(Br)cc1)CN1CCC(Cc2ccccc2)CC1 (stereo unspecified) | inconclusive [inhibitor, partial curve, poor fit]
CC1(C)COCN1S(=O)(=O)c1ccc(C(=O)Nc2nnc(-c3ccc(Cl)s3)o2)cc1 | active: 4.15 µM
COCCN(C(=O)CSc1nc2ccccc2c(=O)n1CCOC)c1c(N)n(Cc2ccccc2)c(=O)[nH]c1=O | inconclusive [inhibitor, single point]
N#Cc1nc(Cl)c(Cl)c(NN)c1Cl | inactive
N#CCC(=O)NCCCc1ccccc1 | inactive
c1csc(-c2nn3c(-c4ccncc4)nnc3s2)c1 | inactive
CCc1nc(N2CCC3(CC2)OCCO3)c2nnn(Cc3ccccc3)c2n1 | inconclusive [inhibitor, partial curve, poor fit]
CCN1C(Nc2ccccc2)=NC[C@@H]1Cc1ccccc1 | inconclusive [inhibitor, partial curve]
CCCCNC(=O)CCc1c(C)nc2c(c(C)nn2-c2ccccc2)c1C | inconclusive [inhibitor, single point]
O=C(Nn1c(C2CCC2)nc2ccccc2c1=O)c1cccs1 | inactive
Cc1ccc(NCc2nnc3n2CCCCC3)cc1 | inactive
O=c1oc2ccccc2c(Nc2ccc(Cl)cc2)c1[N+](=O)[O-] | inconclusive [inhibitor, partial curve]
O=C(c1cc2ccccc2o1)N1CCN(S(=O)(=O)c2ccc(F)c(F)c2F)CC1 | active: 8.28 µM
CC(C)Oc1ccc(C(=O)Nc2ccc(Cl)c(S(=O)(=O)Nc3ccc(Cl)cc3)c2)cc1 | inconclusive [inhibitor, partial curve]
CC(C)=CCN1CCN(Cc2cn[nH]c2C2CCCCC2)CC1CCO (stereo unspecified) | inactive
COc1cc([C@@H]2c3cc4c(cc3[C@@H](NC3CCN(Cc5ccccc5)CC3)[C@H]3COC(=O)[C@H]23)OCO4)cc(OC)c1O | active: 0.738 µM
Cc1cc(O)c(C(C)C)cc1Cl | inconclusive [inhibitor, single point]
OC(CNCc1ccncc1)c1ccccc1 (stereo unspecified) | inactive
COc1cc(/C=C/[N+](=O)[O-])ccc1O | inconclusive [inhibitor, single point]
CC1CCC(C(C)C)C(OC(=O)Cn2c(-c3ccc(F)cc3)[n+](C)c3ccccc32)C1 (stereo unspecified) | active: 0.828 µM

SMILES | Potency
Cc1ccc(F)cc1NC(=O)N1CCN(C2c3ccccc3-c3ccccc32)CC1 | inconclusive [inhibitor, partial curve]
O=C1Nc2ccccc2C1(c1ccccc1)c1ccccc1 | inconclusive [inhibitor, partial curve, poor fit]
CCN1/C(=C\c2ccc3cc(C)ccc3[n+]2CC)Sc2cc(C)c(C)cc21 | active: 5.22 µM
Nc1ncc(Br)cc1S(=O)(=O)NCCC(=O)NCCc1ccc(Cl)cc1 | inconclusive [inhibitor, single point]
Cc1cccc(CS(=O)(=O)c2ncc(Cl)c(C(=O)NCc3ccccc3)n2)c1 | inactive
COc1ccc(-n2cc(-c3ccc(C)cc3)[n+]3c2SCC3)cc1 | active: 0.586 µM
COc1ccc(OC)c(N(CC(=O)N2CCN(Cc3ccccc3)CC2)S(C)(=O)=O)c1 | inconclusive [inhibitor, single point]
Nc1ccccc1SC1CC(=O)N(c2ccccc2Cl)C1=O (stereo unspecified) | inactive
CC1Sc2ccc(S(=O)(=O)N3CCC(C(=O)NCCc4ccccc4)CC3)cc2NC1=O (stereo unspecified) | active: 11.7 µM
CCCCn1c(CN(C)Cc2ccccc2)nc2c1c(=O)n(C)c(=O)n2C | active: 13.1 µM
O=C(Nc1cccc(S(=O)(=O)N2CCOCC2)c1)c1c2c(nc3ccccc13)CCC2 | inconclusive [inhibitor, single point]
Cc1ccc(-c2csc(N(CC3CCCO3)C(=O)c3ccco3)n2)cc1 (stereo unspecified) | inconclusive [inhibitor, single point]
CCCC(=O)N1CCN(c2ccc(NC(=O)c3ccc([N+](=O)[O-])o3)cc2)CC1 | active: 16.5 µM
COc1cccc(NC(=S)N/N=C2/CCCCc3ccccc32)c1 | inconclusive [inhibitor, single point]
CC(=O)c1ccc(S(=O)(=O)N(C)CCCC(=O)N2CCN(c3ncccn3)CC2)cc1 | inconclusive [inhibitor, single point]
O=C(Nc1cc(F)cc(F)c1)c1sc(Cl)nc1-c1ccccc1 | inconclusive [inhibitor, full curve]
COC(=O)C1=C(c2ccc(OC(F)(F)F)cc2)C[C@@H]2CC[C@H]1N2C(=O)N1CCCCC1 | inconclusive [inhibitor, partial curve]
CN1C(=O)NC(=O)/C(=C\C=C\c2ccccc2[N+](=O)[O-])C1=O | inactive
COc1ccc(O)c(-c2[nH]ncc2C(=O)c2ccccc2C)c1 | inconclusive [inhibitor, partial curve, poor fit]
O=C(OCCOc1ccccc1F)c1cccc(S(=O)(=O)N2CCOCC2)c1 | inconclusive [inhibitor, single point]
CC(C)N=C(NS(=O)(=O)c1ccccc1)C(Cl)(Cl)Cl | inconclusive [inhibitor, single point]
C#CC(C)(C)NC(=S)NC1CC2C=CC1C2 (stereo unspecified) | inconclusive [inhibitor, single point]
O=C(NCC(=O)N1CCCCC1)c1ccc(Br)o1 | inactive
